The other results are listed elsewhere or left out. The full chains were built here from the parent and the listed change. Values near 0.05 are background.
B1: TEV protease; numbered along this chain (parent)
chain: MGESLFKGPRDYNPISSSICHLTNESDGHTTSLYGIGFGPFIITNKHLFRRNNGTLVVQSLHGVFKVKDTTTLQQHLVDGRDMIIIRMPKDFPPFPQKLKFREPQREERICLVTTNFQTKSMSSMVSDTSCTFPSGDGIFWKHWIQTKDGQCGSPLVSTRDGFIVGIHSASNFTNTNNYFTSVPKNFMELLTNQEAQQWVSGWRLNADSVLWGGHKVFMVKPEEPFQPVKEATQL

Variants of: B1
Test: raw area under fraction-flipped curve 0-4 h after induction (AUC4h, not background-subtracted), DNA-recorder readout of cleavage of the substrate (dimensionless); higher = more cleavage of the substrate by the protease variant
Conditions: temperature: 34 °C; time window: 0-4 h after rhamnose induction
Procedure: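 In vivo DNA recorder in E. coli TOP10(DE3) ΔrhaA at 34 °C. Each TEVp single-site mutant (parent TEVp 0) is paired with a single-site variant of the 7-mer TEVs (canonical ENLYFQ|S). The substrate sits between flexible linkers in a Bxb1-sfGFP-TEVs-SsrA fusion, so cleavage stabilises Bxb1 and speeds flipping of a recombination array, read by NGS. The value is the raw area under the fraction-flipped curve over 0-4 h after rhamnose induction (AUC4h), with ≥20 reads per time point. It is not background-subtracted; inactive controls average about 0.047.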
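Also: Bxb1 expression induced with 0.2% (w/v) L-rhamnose at OD600 near 0.5, cultures sampled hourly, flipped fraction per protease–substrate barcode pair counted by paired-end Illumina sequencing.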

Variant	area with substrate ENAYFQS	area with substrate ENCYFQS	area with substrate ENDYFQS	area with substrate ENEYFQS	area with substrate ENFYFQS	area with substrate ENHYFQS	area with substrate ENIYFQS	area with substrate ENNYFQS	area with substrate ENPYFQS	area with substrate ENQYFQS	area with substrate ENRYFQS	area with substrate ENSYFQS	area with substrate ENTYFQS	area with substrate ENVYFQS	area with substrate ENWYFQS	area with substrate ENYYFQS	area with substrate ENGYFQS	area with substrate ENKYFQS	area with substrate ENMYFQS
S121D	0.0597	0.0654	0.0481	0.0602	0.0584	0.0513	0.126	0.0558	0.0666	0.0558	0.0786	0.067	0.0513	0.0797	0.0045	0.0492			
G136M	0.0563		0.0937	0.0534	0.0565	0.0704		0.0667		0.0597	0.0722	0.0542	0.0566	0.0968			0.0524		
F92A	0.0798	0.0476	0.05	0.0845	0.0424	0.0668		0.0489	0.0466	0.0571		0.0634	0.0592	0.0533			0.0684	0.0582	
L190W	0.0564		0.0649	0.0637	0.0572	0.076				0.0595	0.0618	0.0335		0.0721					0.0765
F187H	0.0628	0.0485	0.0416	0.0658	0.0626	0.0664	0.0573	0.0579		0.0522		0.0514		0.0448	0.0322		0.0528	0.0615	
S17E	0.0586	0.0671	0.0632		0.0687	0.0575		0.0379		0.0523	0.0562	0.0585	0.0731	0.0789		0.0589	0.0714		0.0815
S17L	0.0487	0.0529	0.0838	0.0577	0.0493		0.135	0.0641	0.0557	0.0581	0.0639	0.059	0.0518	0.0681			0.0483	0.0521	0.0724
S17R	0.0897	0.0668	0.061	0.0568	0.0558	0.0518	0.105	0.0552		0.0531	0.0597	0.0732	0.0674	0.0699			0.0638		
H143K	0.0678		0.0545	0.0636	0.0823	0.0417				0.06	0.0509	0.0529	0.0403	0.0858	0.0527		0.0492	0.0508	0.038
Q59Y	0.0509	0.0676	0.0673	0.0653	0.11		0.12		0.0488	0.0503	0.0601	0.0734	0.073			0.0324	0.0673		0.0564
E195F	0.0533	0.0653	0.0643	0.0556	0.0628	0.0484			0.0569	0.0661	0.0563	0.138	0.0749	0.0715	0.0359				0.112
Q74F	0.0476		0.0584	0.0497			0.109		0.0597				0.0498		0.0422		0.0495		
G37N	0.0631	0.0595	0.0821		0.0591	0.0577		0.0485	0.0757		0.0419	0.0535		0.0505	0.0525			0.0556	
